# Source: the supplement of paper PMC11417369
# ± gives the standard deviation of the averaged measurements. This is one part of the list.
# System: PfAP2-LT AP2 domain (GST-tagged)
# Test: gcPBM binding intensity (ln(normalized median fluorescence intensity)); higher = stronger DNA binding
# Outline: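 The binding buffer was 1× PBS containing 1% milk, 0.2 mg/ml BSA, 0.5% salmon testes DNA and 0.03% Triton X-100. In it, GST-tagged P. falciparum DNA-binding domains expressed in E. coli were applied for 1 h to an Agilent 4 × 180k array of primer-extended double-stranded 36-bp intergenic genomic probes plus negative controls. Binding intensity, read with Alexa488 anti-GST antibody and a 488 nm scan, is the highest Masliner-normalised natural-log median intensity across replicate spots of either probe orientation.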
row,Sequence,gcPBM binding intensity (ln)
1,CATTTTTACCGGTACTGTACATAAAAAAAAAAAAAG [XGTACX_site1548],8.63 ± 0.36
2,TTATATGTTTTACAACGTACACAAAAAAAACTTATA [XGTACX_site4413],8.48 ± 0.38
3,CAAAGAGAAATAAACACACACAAAATAAAGAAAAAA [CACACA_site2245],9.34 ± 0.4
4,TTCTTTTTTCAACACACACACACAAGAAAATATATA [CACACA_site9019],9.51 ± 0.16
5,AAAAAAAAAAAAAAAACACACATATAGATTTATATA [CACACA_site7196],8.65 ± 0.42
6,TTTTTTCTATTGAGCACACATATCACGATTAGTACT [CACACA_site313],8.99 ± 0.41
7,GCTCAATTTTTGGGTACACACAAATGTATAATAATA [CACACA_site2388],8.89 ± 0.4
8,ATATATATTATTTCTACACACATATATATAATATGT [CACACA_site3374],9.32 ± 0.42
9,GCACTCGTAAAAAGCACACATATAAAAACATTTATA [CACACA_site322],8.98 ± 0.45
10,TGAACAGACAAATACACACACTCAAAAAAAAAAAAG [CACACA_site7287],9.35 ± 0.38
11,CAATGCTTTATCAATACATGCATATATATAGAAATA [TGCATGCA_site857],8.67 ± 0.42
12,ATTTTCAAATTCTATGCATGTGTATATTATAGATAA [TGCATGCA_site1003],8.61 ± 0.36
13,AAAATCTATAATATAACACACATATATTCTATATGG [CACACA_site7821],8.82 ± 0.36
14,CATACATACAGACACACACACATATAAATACATACA [CACACA_site6533],9.88 ± 0.35
15,TTCCTGTTAATTACAACACACAATTCTTATTTTATG [CACACA_site6507],8.89 ± 0.58
16,CATTATGTTGTAAATGCACACATACAAATACATATA [CACACA_site8380],9.14 ± 0.35
17,GTAAGTTGTGCATTCACACACATATAAATATAAATA [CACACA_site7536],9.12 ± 0.38
18,TTATGATATATTTGTTGTACGCTTTTTTTATGAACT [XGTACX_site573],8.97 ± 0.47
19,AATTAAATTACTTATACACACATAAAATGCCTGTAT [CACACA_site6597],9.03 ± 0.39

row,Sequence,gcPBM binding intensity (ln)
1,ATGACCCACTTTTCTGCACACATAAAAAATATATAA [CACACA_site8092],9.01 ± 0.42
2,AACACATACATATATACACACACAAAATAATAAAAT [CACACA_site8724],9.8 ± 0.39
3,TTAACAAAACTTTTAACACACAAAAAAAAAAAAAAA [CACACA_site6947],8.65 ± 0.38
4,CTATAATAATAAAGTGAACACACACCGATAATATAT [CACACA_site9377],9.26 ± 0.32
5,TGTTTTATTATTTATAGTACATAAAAAAATATTGTA [XGTACX_site8963],8.24 ± 0.35
6,ATATATATGTGAAAATCACACATTGCTTATCTGTAA [CACACA_site6044],9.39 ± 0.35
7,AACAATATTATTGTTTGTACTCACATATATAATATA [XGTACX_site8063],8.61 ± 0.41
8,AAAAAAACATGAAACACACACAAATATATATATATA [CACACA_site1884],9.53 ± 0.52
9,TTCGTATATTATTAATGTACATTATAAAATCAATAT [XGTACX_site5751],8.54 ± 0.42
10,AAAAAAAAAAAAAAAAAAAAAAAAAAAATTCTATAT [GTGCAC_negctrl_site468],8.885 ± 0.021
11,AAGGCATACAATACCTGTACGCAACCTTAAAAAGAA [XGTACX_site6070],9.02 ± 0.59
12,TATATATATATATATGGTACAGTTTATGCCTTTTAA [XGTACX_site6695],9.58 ± 0.3
13,ATTTTCATGATAAAGGTGCAATTATTTTTATAAGAA,8.43 ± 0.42
14,TATAATATATACAAATGTACATATATATATATATAT [XGTACX_site4559],9.57 ± 0.15
15,TTATTTATAATATATACACACTAACATTATTTATCC [CACACA_site4835],8.8 ± 0.51
16,AGATATTTCATTTAAAGTACATTCTTTATCACATAA [XGTACX_site6731],8.46 ± 0.52
17,CACACGCACAAAAACACACACAAAGGTGTTCTTATA [CACACA_site6724],9.38 ± 0.37
18,TTATTTTTTTTTTTTCGTACTTATTTATCTTGGTAT [XGTACX_site78],8.67 ± 0.49
19,TTTTTATTAATAGATATAAATATATAATATGAATGT [TGCATGCA_negctrl_site309],8.53 ± 0.49

row,Sequence,gcPBM binding intensity (ln)
1,ATATATATATATATTTGTACAGATTTATATTATAAT [XGTACX_site7612],9.01 ± 0.36
2,GAAAATTTAATATAGAACGAAAGCATACACATATAT [GTGCAC_negctrl_site424],8.9 ± 0.44
3,AAATATTATAGCACCACACACTTATTTTATATATAT [CACACA_site5281],9.07 ± 0.33
4,CCATATAATATGAACAGTACACACAAAATAAATTCG [XGTACX_site7590],9.14 ± 0.41
5,AATATAAAAAAAAAATGTACATATTATATATATATA [XGTACX_site5113],8.88 ± 0.38
6,AAAAATTTTTTTTCATTTGTTTTTATTCCGTAAAAA [CACACA_negctrl_site1217],8.23 ± 0.47
7,ACCGAAGGAATTTATAGTACACATCATAAATAAATT [XGTACX_site4100],8.76 ± 0.48
8,TATAATATAAAATAATGTACTTTGAAATATGACATA [XGTACX_site3579],8.49 ± 0.4
9,AGTTTGATTTTTTCTTATAATATATTATTATATATT [CACACA_negctrl_site376],8.9 ± 0.46
10,GGGGTATCTTCCTATGCACACTTGTTATGTACTAAC [CACACA_site4610],9.36 ± 0.42
11,TTTTTGTTTTTGTTTTGTACTCATACATACTATCAT [XGTACX_site4210],8.97 ± 0.44
12,CTTTTATTAAAATTCACACACATAAATTTTTATAAA [CACACA_site1993],8.61 ± 0.4
13,ATATATACGTATGAATGTATATTTGTTTGATTTTTT [CACACA_negctrl_site835],8.73 ± 0.46
14,ATATGTGATTTCTAATGTACACAAAAAAAAAAAAAA [XGTACX_site7701],8.72 ± 0.45
15,TCTTCAAACAAAAAAAATAATAAAAAGTACAAAATG [CACACA_negctrl_site363],8.64 ± 0.45
16,TTATGTCATAAATGCACACATATATAAATACAGATA [CACACA_site4959],9.04 ± 0.33
17,TATATAAGGATATATACACACATATAGGTATTTATA [CACACA_site7092],8.96 ± 0.42
18,TCAGGAATATAAAGTGCACACATAATTTGGGGGCAA [CACACA_site7974],9.34 ± 0.4
